Some of the results follow. The main result of the screen is listed elsewhere. These columns were measured beside it and carry no call.
Target: GTPase KRas (Homo sapiens) (UniProt P01116)
Test: Fragment capture on engineered cysteines, share of protein labelled (AID 2202238)
Design: protein at 5 µM with 500 µM competing thiol for 1.5 h
Settings: KRAS G12D cysteine mutants, disulfide tethering, MALDI-TOF labeling, stronger effect = higher value, fragment at 500 µM
[1] = measured here: G75C mutant labeling
[2] = measured here: H94C mutant labeling
[3] = measured here: I36C mutant labeling
[4] = measured here: L120C mutant labeling
[5] = measured here: M67C mutant labeling
[6] = measured here: M72C mutant labeling
[7] = measured here: N86C mutant labeling
[8] = measured here: P121C mutant labeling
[9] = measured here: S122C mutant labeling
[10] = measured here: S136C mutant labeling
[11] = measured here: G60C mutant labeling
[12] = measured here: N26C mutant labeling

Sequence of UniProt P01116 (P01116 whole entry, looked up, the tested form may be a part): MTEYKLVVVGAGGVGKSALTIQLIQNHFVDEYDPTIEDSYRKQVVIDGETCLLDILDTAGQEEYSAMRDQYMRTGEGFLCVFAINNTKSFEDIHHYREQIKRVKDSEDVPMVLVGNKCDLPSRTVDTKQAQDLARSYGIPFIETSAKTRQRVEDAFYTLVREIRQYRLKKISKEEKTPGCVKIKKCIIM

| Structure (SMILES) | percent labeling [1] [%] | percent labeling [2] [%] | percent labeling [3] [%] | percent labeling [4] [%] | percent labeling [5] [%] | percent labeling [6] [%] | percent labeling [7] [%] | percent labeling [8] [%] | percent labeling [9] [%] | percent labeling [10] [%] | percent labeling [11] [%] | percent labeling [12] [%] |
| --- | --- | --- | --- | --- | --- | --- | --- | --- | --- | --- | --- | --- |
| O=C(CCS)NC1(c2cccc(F)c2F)CCCC1 | 15.9 | 36.8 | 35.9 | 36.6 | 33.8 | 53.5 | 23.7 | 29.8 | 33.2 | 59.8 |  |  |
| O=C(CCS)NCCc1ccc(-n2cnnc2)cc1 | 9.1 | 30.8 | 32.5 | 27.1 | 39.4 | 23 | 16.3 | 31.2 | 37.2 | 46 |  |  |
| O=C(CCS)N1CCC2(CC1)OCCc1ccccc12 | 28.5 | 36.5 | 28.1 | 25.1 | 40 | 50.6 | 18.4 | 27.1 | 23.1 | 46.4 |  |  |
| CCOC(=O)C1C2CC(CN(C(=O)CCS)C2)N1C(=O)OC(C)(C)C (stereo not drawn) | 14.4 | 29.8 | 18.5 | 25.9 | 23.8 | 16.3 | 19.6 | 23.5 | 28.4 | 54.1 |  |  |
| Cc1cc2ncc(C(=O)N(C)CC(=O)NCCS)c(C)n2n1 | 9.2 | 31.1 | 34.9 | 24.6 | 24.7 | 12.4 | 21.3 | 30.2 | 25.9 | 33.4 | 24.9 | 31.6 |
| O=C(CCS)N1CCOCc2cc(Br)ccc21 | 18.4 | 51.2 | 34.5 | 19.1 | 36.8 | 35.5 | 29.2 | 27.5 | 21.6 | 46.9 |  |  |
| O=C(CCS)N1CCc2c(ncn2-c2ccc(F)cc2)C1 | 30.7 | 43.2 | 45.5 | 32.2 | 44.2 | 51 | 31.3 | 31.7 | 31.9 | 59.8 |  |  |
| O=C(NCCS)C1COc2ccccc2O1 (stereo not drawn) | 20.5 | 39.9 | 25.9 | 35.6 | 31.5 | 47.4 | 24.1 | 34.3 | 30.5 | 52.3 |  |  |
| Cc1nc(C2CCN(C(=O)CCS)C2)n[nH]1 (stereo not drawn) | 11 | 26.3 | 36.8 | 23.1 | 34.6 | 14.9 | 24.7 | 31.7 | 29.7 | 53.8 |  |  |
| O=C(CCS)Nc1ccc2[nH]ncc2c1Cl | 34.3 | 37 | 46.8 | 26.1 | 36.4 | 49.4 | 51.8 | 30.2 | 27.4 | 59.9 |  |  |
| CC(Cc1ccc(F)c(F)c1)C(=O)NCCS (stereo not drawn) | 21.9 | 35.9 | 33.8 | 30.6 | 38.2 | 46.5 | 26 | 29.5 | 25.6 | 46.1 | 48.5 | 44.1 |
| NC(=O)c1cc(NC(=O)CCS)ccc1Cl | 18.8 | 29.5 | 35.3 | 39 | 29.2 | 39.7 | 24 | 36.3 | 40.6 | 50.2 |  |  |
| O=C(NCCS)C(c1ccccc1)N1CCCCC1=O (stereo not drawn) | 18.1 | 41 | 23.8 | 47.9 | 35.5 | 20.3 | 28 | 36.3 | 33.4 | 69.9 | 40.7 | 37.3 |
| O=C(NCCS)c1ccc(-c2ccc(F)cc2)o1 | 12.5 | 10.3 | 9 | 16.4 | 11.9 | 47.5 | 7.9 | 10.6 | 6.7 | 21.3 | 15.9 | 29.1 |
| O=C(CCS)N1CC(O)(c2ccc(F)cc2)C1 | 23.7 | 30.7 | 38 | 20.6 | 41.1 | 33.7 | 19 | 35.9 | 36.4 | 47.6 |  |  |
| O=C(NCCS)[C@@H]1C[C@@H]1c1nc2ncccc2[nH]1 | 13.3 | 26.1 | 26.3 | 33.5 | 24.1 | 15 | 19.2 | 25.6 | 24.3 | 33.3 | 25.9 | 33.8 |
| COc1cc2cc(C(=O)NCCS)[nH]c2cc1OC | 11.2 | 15.6 | 14.5 | 21.7 | 11.6 | 36.1 | 15.8 | 13.5 | 12.8 | 19.1 | 17.2 | 38.5 |
| Cn1c(CNC(=O)CCS)nnc1-c1ccccc1 | 10.9 | 36.6 | 45.6 | 34.6 | 41.9 | 29.1 | 32.6 | 39.5 | 31.1 | 53.1 |  |  |
| O=C(NCCS)C1(c2ccc(Br)cn2)CCC1 | 22.4 | 36.3 | 23.1 | 56 | 28.1 | 41.6 | 25.7 | 28.6 | 24.5 | 45.8 | 56.1 | 41.2 |
| O=C(CC1=NN(c2cccc(Cl)c2)C(=O)C1)NCCS | 4.4 | 10.7 | 5.4 | 9.9 | 5.4 | 0 | 5.5 | 8.3 | 0 | 10.2 | 12.9 | 9.2 |
| O=C1CN(Cc2occc2C(=O)NCCS)CCN1 | 10.7 | 30.7 | 15.4 | 23.7 | 20.8 | 10.1 | 17.3 | 26.9 | 20.3 | 25.1 | 22.3 | 24.5 |
| CC(C)Cc1cc(CNC(=O)CCS)no1 | 16.5 | 27.5 | 35.1 | 22.9 | 27.9 | 39.7 | 28.4 | 31.2 | 27.1 | 44.5 |  |  |
| COc1cc2c(c(OC)c1OC)CCN(C(=O)CCS)CC2 | 15.4 | 36.3 | 32.3 | 32.2 | 44.1 | 28.6 | 39.3 | 32 | 31.3 | 58.7 |  |  |
| O=C(CCS)NCc1nnc(N2CCCC2)o1 | 6 | 13.8 | 19.7 | 25.7 | 19.6 | 10.3 | 7.2 | 24.1 | 21.8 | 36.5 |  |  |

| Structure (SMILES) | percent labeling [1] [%] | percent labeling [2] [%] | percent labeling [3] [%] | percent labeling [4] [%] | percent labeling [5] [%] | percent labeling [6] [%] | percent labeling [7] [%] | percent labeling [8] [%] | percent labeling [9] [%] | percent labeling [10] [%] | percent labeling [11] [%] | percent labeling [12] [%] |
| --- | --- | --- | --- | --- | --- | --- | --- | --- | --- | --- | --- | --- |
| O=C(CCS)NC1CCN(C(=O)c2ccccc2F)CC1 | 13.7 | 40.5 | 50 | 31.8 | 53.4 | 32.4 | 34.4 | 37.7 | 40.5 | 63.8 |  |  |
| O=C(NCCS)c1cnn(-c2ccc(F)cc2)c1-n1cccc1 | 20.4 | 18.5 | 12.4 | 20.7 | 13.3 | 41.7 | 13.4 | 11.6 | 10.7 | 25 | 33.6 | 35.1 |
| Cc1cc(C(=O)NCCS)c(C)n1C1CCCOC1 (stereo not drawn) | 4.6 | 15.6 | 0 | 16.1 | 10.6 | 13.6 | 8.9 | 12.5 | 10.2 | 16.1 | 13.2 | 12.9 |
| COc1c(Cl)cc(C(=O)NCCS)c2ncccc12 | 30 | 21.6 | 9.7 | 15 | 14.9 | 43.1 | 7.6 | 12.9 | 9.6 | 19.3 | 32.2 | 30.5 |
| O=C(CCS)NC1CCN(c2ccc(F)cc2)CC1 | 10.8 | 32 | 39.3 | 27.8 | 39.1 | 28.8 | 15.2 | 31.7 | 30.2 | 49.3 |  |  |
| CCc1cc2c(CC(=O)NCCS)csc2s1 | 16.9 | 20.1 | 10.5 | 19.5 | 13.6 | 39.9 | 15.6 | 16.4 | 5.6 | 19 | 36.4 | 27 |
| Cc1ccc(C(=O)NCCS)c(F)c1Br | 19.8 | 21.3 | 11.8 | 18 | 16.9 | 51 | 17.2 | 18.3 | 13.3 | 19.2 | 38.5 | 32.3 |
| Cc1cc(Oc2ccccc2)ccc1C(=O)NCCS | 8.4 | 12.1 | 6.8 | 15.7 | 18.1 | 35.7 | 7.9 | 15.2 | 12.1 | 15.7 | 32.6 | 27.4 |
| CC(=O)N(CCC(=O)NCCS)Cc1ccccc1 | 12.7 | 34.6 | 29.6 | 46.3 | 40.2 | 23.9 | 24.5 | 33.9 | 33.5 | 53 | 37.3 | 37.6 |
| CN(Cc1ccnc2ccccc12)C(=O)CCS | 20.9 | 34 | 38.5 | 29.2 | 40.3 | 40.4 | 32.1 | 37.4 | 17.9 | 58 |  |  |
| CC(C)(CNC(=O)CCS)c1ccc(F)cn1 | 10.2 | 30.7 | 37.9 | 25 | 33 | 21.5 | 21.4 | 33.2 | 33 | 48.3 |  |  |
| Cc1cc(NC(=O)CCS)c(C#N)cc1N(C)C | 22.5 | 27 | 38.9 | 30 | 39.2 | 48.5 | 36.5 | 29.6 | 22.7 | 51.9 |  |  |
| Cc1cccc(C(=O)NC2CC(NC(=O)CCS)C2)n1 (stereo not drawn) | 10.6 | 30.8 | 41.4 | 34.1 | 39.2 | 18.1 | 29.9 | 34.6 | 37.4 | 49.6 |  |  |
| O=C(CCS)Nc1cn[nH]c1-c1ccccn1 | 40.6 | 27.9 | 24.1 | 15.9 | 29.3 | 48 | 13.9 | 17.8 | 25.4 | 37.1 |  |  |
| O=C(CCS)NCCn1ccc(-c2ccccc2)n1 | 13.8 | 41.2 | 38.9 | 37.2 | 44.9 | 34.1 | 22.3 | 35.3 | 32 | 54.7 |  |  |
| Cc1nn(C)c(N2CCN(C(=O)CCS)CC2)c1C#N | 17.9 | 33.3 | 43.5 | 31.9 | 52.3 | 33.8 | 31 | 35 | 34.4 | 67.5 |  |  |
| CC(C)c1ccc(NC(=O)CCS)cc1C(F)(F)F | 15.3 | 21.2 | 17.8 | 26.5 | 14.7 | 42.6 | 18.7 | 14.3 | 11.3 | 45.4 |  |  |
| Cc1nc(-c2ccncc2)[nH]c(=O)c1CCC(=O)NCCS | 7.9 | 23.8 | 22.5 | 24.5 | 29.9 | 10.7 | 23.7 | 26.4 | 26.6 | 29.1 | 28.1 | 34.1 |
| Cn1ccc(C(=O)NCCS)c1-c1ccccc1 | 17.6 | 51.6 | 18.5 | 43 | 30.3 | 38.1 | 21.8 | 21.7 | 23.2 | 44.1 | 54.1 | 36.4 |
| COc1ccc2c(n1)N(C)CCN2C(=O)CCS | 11.7 | 28.2 | 27.8 | 14.1 | 30.5 | 28.7 | 26 | 19.8 | 21.6 | 40.6 |  |  |
| O=C(CCS)N1CC(Oc2cccc(F)c2)C1 | 24.5 | 28 | 28.1 | 25.6 | 51.6 | 43.3 | 20.3 | 32.8 | 26 | 44.7 |  |  |
| O=C(NCCS)C1(Oc2ccc(Cl)cc2)CC1 | 16.2 | 23.1 | 12.6 | 22.4 | 20 | 22.7 | 13.8 | 18.6 | 15 | 24.8 | 38.4 | 28.8 |
| Cc1cc(C)n(-c2ccc(NC(=O)CCS)cc2Cl)n1 | 14.9 | 18.9 | 25.9 | 18.6 | 21.7 | 36.7 | 13.6 | 20.1 | 15.9 | 44.3 |  |  |
